Results as given in PubChem BioAssay (Tox21).
“And” between values parts separate entries of the source, which are not always exact repeats. Equal entries are not always repeated. Inconclusive results, whose numbers are uncertain, are shown with a selection of clear calls. For some assays here: Potencies beside an inconclusive call are fits to weak or partial responses and may not hold up. A structure can be active in one record and inactive in another. The source made the active and inactive calls. Unless noted, the call rests on the fitted dose curve; in most records, active means well fitted curve in the direction sought with a large enough effect in the repeat runs; inconclusive means weak or mixed curves; inactive means no such curve, though single readings can be large; an effect the other way counts as inactive or inconclusive.

Assays:
[1] = qHTS assay to identify small molecule that activate the aryl hydrocarbon receptor (AhR) signaling pathway - cell viability counter screen (AID 743086); further: nearly all actives have a fitted effect of over 45% in size; further: potency means the concentration at half of the fitted maximal effect;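 on viability change, negative = cytotoxic: HepG2 liver cells carrying the AhR DRE luciferase reporter; on the % scale 0 is the no-effect control and ±100 the full control effect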
Method in brief: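 Cytotoxicity counter screen: CellTiter-Fluor signal (30 min, 37 C) in 4000 HepG2 cells/well carrying the DRE-luciferase reporter, following 24 h compound exposure at 37 C.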

[2] = target: Peroxisome proliferator-activated receptor gamma (Homo sapiens) (UniProt P37231); experiment: qHTS assay to identify small molecule antagonists of the peroxisome proliferator-activated receptor gamma (PPARg) signaling pathway (AID 743191; calls by dose curve; further: nearly all actives have a fitted effect of over 30% in size; further: potency means the concentration at half of the fitted maximal effect; on ratio activity, negative = inhibition: on the % scale 0 is the no-effect control and ±100 the full control effect); details: HEK293H PPARg-UAS-bla, beta-lactamase ratio, antagonist, 17 h; ratio activity, negative = inhibition: at 62.6 µM (top of the series) unless noted
UniProt P37231, sequence (P37231 whole entry, looked up): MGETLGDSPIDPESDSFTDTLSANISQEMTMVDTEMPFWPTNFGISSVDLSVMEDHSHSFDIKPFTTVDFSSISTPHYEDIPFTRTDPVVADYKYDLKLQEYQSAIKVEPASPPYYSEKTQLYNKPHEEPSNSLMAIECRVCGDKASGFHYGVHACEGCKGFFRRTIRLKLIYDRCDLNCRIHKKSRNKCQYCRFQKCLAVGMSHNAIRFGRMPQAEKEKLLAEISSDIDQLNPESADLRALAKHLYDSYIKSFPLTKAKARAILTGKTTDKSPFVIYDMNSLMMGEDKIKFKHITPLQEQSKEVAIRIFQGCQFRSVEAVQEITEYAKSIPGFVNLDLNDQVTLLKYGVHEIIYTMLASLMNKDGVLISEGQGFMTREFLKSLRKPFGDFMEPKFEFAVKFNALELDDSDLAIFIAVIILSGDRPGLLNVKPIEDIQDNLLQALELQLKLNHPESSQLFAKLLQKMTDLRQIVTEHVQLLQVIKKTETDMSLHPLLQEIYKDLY
Method in brief: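 Beta-lactamase reporter under UAS control in HEK293H PPARg-bla cells; compound treatment 17 h at 37C. Read-out: fluorescence intensity after 1 h room-temperature incubation with LiveBLAzer B/G FRET substrate.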

[3] = qHTS assay to identify small molecule antagonists of the peroxisome proliferator-activated receptor gamma (PPARg) signaling pathway - cell viability counter screen (AID 743194); details: PPARg-bla HEK293H viability, CellTiter-Glo luminescence, 17 h, co-treated with 50 nM rosiglitazone; activity change, negative = cytotoxicity: at 62.6 µM (top of the series) unless noted; further: potency means the concentration at half of the fitted maximal effect; nearly all actives have a fitted effect of over 55% in size
Method in brief: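 Viability was measured as CellTiter-Glo luminescence in GeneBLAzer PPARg UAS-bla HEK293H cells. These cells had been exposed 17 h at 37 C to compounds together with rosiglitazone at 50 nM final, with the beta-lactamase readout taken in the same wells.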

[4] = qHTS assay for small molecule activators of the heat shock response signaling pathway - cell viability counter screen (AID 743209); details: HSE-bla HeLa viability, CellTiter-Glo luminescence, 5 h; activity change, negative = cytotoxicity: at 62.6 µM (top of the series) unless noted; further: potency means the concentration at half of the fitted maximal effect; nearly all actives have a fitted effect of over 50% in size
Method in brief: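 HSE-bla HeLa cells plated overnight, then exposed to Tox21 compounds (23 nL in DMSO) for 5 h at 37 C. After the bla reporter read, CellTiter-Glo was added in the same wells and luminescence read after 30 min at room temperature.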

[5] = qHTS assay to identify small molecule agonists of the peroxisome proliferator-activated receptor delta (PPARd) signaling pathway - cell viability counter screen (AID 743211); details: PPARd-bla HEK293H viability, CellTiter-Glo luminescence, 17 h; activity change, negative = cytotoxicity: at 62.6 µM (top of the series); further: potency means the concentration at half of the fitted maximal effect; nearly all actives have a fitted effect of over 55% in size
Method in brief: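 Counter screen for cytotoxicity run in parallel with the PPARd reporter screen. Beta-lactamase reporter HEK293H cells exposed to compounds 17 h; ATP-based CellTiter-Glo luminescence quantified viability.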

[6] = target: Peroxisome proliferator-activated receptor delta (Homo sapiens) (UniProt Q03181); experiment: qHTS assay to identify small molecule agonists of the peroxisome proliferator-activated receptor delta (PPARd) signaling pathway (AID 743212; calls by dose curve; further: potency means the concentration at half of the fitted maximal effect; on activation: on the % scale 0 is the no-effect control and ±100 the full control effect); details: HEK293H PPARd-UAS-bla, beta-lactamase FRET ratio, 17 h; activation: at 62.6 µM (top of the series) unless noted
UniProt Q03181, sequence (Q03181 whole entry, looked up): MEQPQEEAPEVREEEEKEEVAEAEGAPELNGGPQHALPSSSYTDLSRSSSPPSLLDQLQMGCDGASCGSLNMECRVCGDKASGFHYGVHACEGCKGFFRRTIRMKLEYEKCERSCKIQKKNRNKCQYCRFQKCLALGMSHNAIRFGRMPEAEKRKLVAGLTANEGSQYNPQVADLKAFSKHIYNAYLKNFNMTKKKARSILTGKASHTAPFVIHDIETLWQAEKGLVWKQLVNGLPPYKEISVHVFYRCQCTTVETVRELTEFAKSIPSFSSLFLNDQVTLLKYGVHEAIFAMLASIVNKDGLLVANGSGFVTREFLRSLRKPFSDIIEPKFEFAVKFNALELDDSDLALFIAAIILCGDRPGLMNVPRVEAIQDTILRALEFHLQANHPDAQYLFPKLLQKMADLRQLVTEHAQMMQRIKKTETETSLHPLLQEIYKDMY
Method in brief: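 HEK293H PPARd-bla cells; 5 h preincubation 37 C/5% CO2; compound (DMSO) 37 C; LiveBLAzer B/G FRET substrate 2 h RT; fluorescence intensity.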

[7] = target: Peroxisome proliferator-activated receptor delta (Homo sapiens) (UniProt Q03181); experiment: qHTS assay to identify small molecule antagonists of the peroxisome proliferator-activated receptor delta (PPARd) signaling pathway (AID 743215; active means well fitted inhibition curve with a large enough effect in the signal ratio in the repeat runs, not every such curve was filed as active; inconclusive means weak or mixed curves, or effect the other way; inactive means no such curve, though single readings can be large or run the other way; the % refers to the signal ratio;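 further: cells stimulated with agonist L165041 at 300 nM final during compound exposure; potency means the concentration at half of the fitted maximal effect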); details: HEK293H PPARd-UAS-bla, beta-lactamase FRET ratio, antagonist, 17 h; ratio activity, negative = inhibition: at 62 µM (top of the series) unless noted
Method in brief: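 PPARd-bla HEK293H cells (UAS-bla reporter) preincubated 5 h, then given compound plus 300 nM final L165041 agonist for 17 h at 37 C. Beta-lactamase activity read by LiveBLAzer B/G FRET substrate fluorescence after 2 h at room temperature.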

[8] = target: Bile acid receptor (Homo sapiens) (UniProt Q96RI1); experiment: qHTS assay to identify small molecule antagonists of the farnesoid-X-receptor (FXR) signaling pathway (AID 743217; active means well fitted inhibition curve with a large enough effect in the signal ratio in the repeat runs, not every such curve was filed as active; inconclusive means weak or mixed curves, or effect the other way; inactive means no such curve, though single readings can be large or run the other way; the % refers to the signal ratio; further: potency means the concentration at half of the fitted maximal effect); details: HEK293T FXR-UAS-bla, beta-lactamase ratio, CDCA-stimulated, 16 h; activity change, negative = inhibition: at 62.6 µM (top of the series) unless noted
UniProt Q96RI1, sequence (Q96RI1 whole entry, looked up): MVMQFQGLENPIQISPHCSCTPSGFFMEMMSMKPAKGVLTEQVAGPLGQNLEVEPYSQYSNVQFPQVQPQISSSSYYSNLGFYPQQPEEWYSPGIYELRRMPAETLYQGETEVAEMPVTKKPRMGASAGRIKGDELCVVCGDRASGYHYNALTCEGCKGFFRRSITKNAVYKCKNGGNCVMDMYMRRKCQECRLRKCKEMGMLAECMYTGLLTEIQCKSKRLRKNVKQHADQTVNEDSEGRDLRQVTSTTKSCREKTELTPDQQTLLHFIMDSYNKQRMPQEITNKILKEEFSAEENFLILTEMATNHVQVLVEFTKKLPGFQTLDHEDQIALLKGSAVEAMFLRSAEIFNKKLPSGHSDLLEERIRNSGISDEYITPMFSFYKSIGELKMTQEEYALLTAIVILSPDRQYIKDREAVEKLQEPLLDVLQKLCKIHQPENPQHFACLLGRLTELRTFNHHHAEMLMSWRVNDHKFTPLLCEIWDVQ
Method in brief: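 FXR-UAS-bla HEK 293T cells (beta-lactamase reporter) given compound plus chenodeoxycholic acid (50 uM final), 16 h at 37C. LiveBLAzer B/G FRET substrate added for 2 h at room temperature; fluorescence read.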

[9] = qHTS assay to identify small molecule agonists of the farnesoid-X-receptor (FXR) signaling pathway - cell viability counter screen (AID 743218); details: FXR-bla HEK293T viability, CellTiter-Glo luminescence, 16 h; viability change, negative = cytotoxic: at 62.6 µM (top of the series) unless noted; further: potency means the concentration at half of the fitted maximal effect; nearly all actives have a fitted effect of over 45% in size
Method in brief: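 FXR-UAS-bla HEK 293T cells exposed to compounds for 16 h at 37C. Cytotoxicity read in the same wells by CellTiter-Glo luminescence after 30 min at room temperature, following the beta-lactamase FRET read.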

[10] = target: Bile acid receptor (Homo sapiens) (UniProt Q96RI1); experiment: qHTS assay to identify small molecule agonists of the farnesoid-X-receptor (FXR) signaling pathway (AID 743220; active means well fitted activation curve with a large enough effect in the signal ratio in the repeat runs, not every such curve was filed as active; inconclusive means weak or mixed curves, or effect the other way; the % refers to the signal ratio; further: potency means the concentration at half of the fitted maximal effect); details: HEK293T FXR-UAS-bla, beta-lactamase FRET ratio, 16 h; activation: at 62.6 µM (top of the series) unless noted
Method in brief: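 Beta-lactamase reporter under UAS control in GeneBLAzer FXR HEK 293T cells (5000/well) measured with LiveBLAzer FRET substrate after 2 h at room temperature. Compound exposure lasted 16 h at 37C.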

[11] = qHTS assay to identify small molecule antagonists of the farnesoid-X-receptor (FXR) signaling pathway - cell viability counter screen (AID 743221; active means well fitted cell-killing curve with a large enough effect in the repeat runs, not every such curve was filed as active; inconclusive means weak or mixed curves, or effect the other way; inactive means no such curve, though single readings can be large or run the other way; further: potency means the concentration at half of the fitted maximal effect; nearly all actives have a fitted effect of over 50% in size); details: FXR-bla HEK293T viability, CellTiter-Glo luminescence, 16 h; activity change, negative = cytotoxicity: at 62.6 µM (top of the series)
Method in brief: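 Multiplexed counter screen: viability of FXR-bla HEK 293T cells under agonist stimulation by chenodeoxycholic acid (50 uM, final) and test compound for 16 h at 37 C, measured by CellTiter-Glo luminescence in the reporter wells.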

[12] = target: Vitamin D3 receptor (Homo sapiens) (UniProt P11473); experiment: qHTS assay to identify small molecule agonists of the vitamin D receptor (VDR) signaling pathway (AID 743222; calls by dose curve; further: on the % scale 0 is the no-effect control and ±100 the full control effect); details: HEK293T VDR-UAS-bla, beta-lactamase FRET ratio, 16 h; activation: at 63.5 µM (top of the series) unless noted
UniProt P11473, sequence (P11473 whole entry, looked up): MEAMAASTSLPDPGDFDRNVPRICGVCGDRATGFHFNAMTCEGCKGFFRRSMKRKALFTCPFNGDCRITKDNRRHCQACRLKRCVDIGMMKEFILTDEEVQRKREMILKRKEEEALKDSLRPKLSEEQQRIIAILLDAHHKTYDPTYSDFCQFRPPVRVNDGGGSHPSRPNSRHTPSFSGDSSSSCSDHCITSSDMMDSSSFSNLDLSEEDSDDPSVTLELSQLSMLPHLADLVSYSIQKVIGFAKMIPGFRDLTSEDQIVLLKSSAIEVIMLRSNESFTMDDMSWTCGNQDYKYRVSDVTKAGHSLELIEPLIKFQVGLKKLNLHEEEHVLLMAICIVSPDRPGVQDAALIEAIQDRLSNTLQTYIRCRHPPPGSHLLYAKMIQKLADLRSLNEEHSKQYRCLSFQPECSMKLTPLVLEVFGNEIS
Method in brief: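 VDR-bla cells plated 4 h at 37 C, then exposed to compounds for 16 h at 37 C. Beta-lactamase reporter activity measured by fluorescence after 2 h room-temperature loading with LiveBLAzer B/G FRET substrate.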

[13] = target: Vitamin D3 receptor (Homo sapiens) (UniProt P11473); experiment: qHTS assay to identify small molecule antagonists of the vitamin D receptor (VDR) signaling pathway (AID 743223; active means well fitted inhibition curve with a large enough effect in the signal ratio in the repeat runs, not every such curve was filed as active; inconclusive means weak or mixed curves, or effect the other way; inactive means no such curve, though single readings can be large or run the other way; the % refers to the signal ratio; further: potency means the concentration at half of the fitted maximal effect); details: VDR-UAS-bla HEK293T, beta-lactamase FRET ratio, 16 h; activity change, negative = inhibition: at 61 µM (top of the series) unless noted
Method in brief: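 Cells carrying a VDR-driven beta-lactamase reporter (VDR-bla) were co-treated with compound and 3 nM final 1alpha,25-dihydroxyvitamin D3 for 16 h at 37C; reporter activity was measured as FRET substrate fluorescence after 2 h at room temperature.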

[14] = qHTS assay to identify small molecule agonists of the vitamin D receptor (VDR) signaling pathway - cell viability counter screen (AID 743224); details: VDR-bla HEK293T viability, CellTiter-Glo luminescence, 16 h; activity change, negative = cytotoxicity: at 62.6 µM (top of the series) unless noted; further: potency means the concentration at half of the fitted maximal effect; nearly all actives have a fitted effect of over 50% in size
Method in brief: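 VDR-bla cells, 4 h after plating, exposed to compounds for 16 h at 37C; viability then read in the same wells as CellTiter-Glo luminescence after 30 min at room temperature, following the bla FRET read.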

[15] = qHTS assay to identify small molecule antagonists of the vitamin D receptor (VDR) signaling pathway - cell viability counter screen (AID 743225); details: VDR-bla HEK293T viability, CellTiter-Glo luminescence, 16 h; viability change, negative = cytotoxic: at 61 µM (top of the series) unless noted; further: nearly all actives have a fitted effect of over 50% in size; further: potency means the concentration at half of the fitted maximal effect
Method in brief: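 HEK293T VDR-bla; cpd + 1a,25-(OH)2D3 3 nM final, 16 h 37C/5% CO2; B/G FRET substrate 2 h RT; then CellTiter-Glo 30 min RT, luminescence.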

[16] = qHTS assay to identify small molecule antagonists of the peroxisome proliferator-activated receptor delta (PPARd) signaling pathway - cell viability counter screen (AID 743213); details: PPARd-bla HEK293H viability, CellTiter-Glo luminescence, 17 h; viability change, negative = cytotoxic: at 62 µM (top of the series) unless noted
Method in brief: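 PPARd-bla HEK293H cells (3000/well) got compound plus 300 nM L165041 agonist for 17 h at 37 C. Viability in the same wells came from CellTiter-Glo luminescence after 30 min at room temperature.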
Tags describe the fitted curve by direction and shape or compound fluorescence and quenching.

SMILES | Potency [1] | Potency [2] | Potency [3] | Potency [4] | Potency [5] | Potency [6] | Potency [7] | Potency [8] | Potency [9] | Potency [10] | Potency [11] | activation [12] | Potency [13] | Potency [14] | Potency [15] | activation [6] | activity change, negative = inhibition [13] | Potency [16] | activity change, negative = inhibition [8]
CCCCCCCCNC(C)C(O)c1ccc(SC(C)C)cc1 (stereo not given) | active: 23.7 µM | inconclusive: 26.6 µM [cytotoxic, single point] | active: 23.7 µM | active: 18.8 µM | active: 9.44 µM | inconclusive: 10.6 µM [rising, partial curve] | inconclusive: 33.5 µM [cytotoxic, single point] | inconclusive: 33.5 µM [cytotoxic, single point] | active: 18.8 µM | inconclusive: 33.5 µM [single point] | active: 23.7 µM | inconclusive: 23.3% | inconclusive: 23.9 µM [cytotoxic, partial curve, poor fit] | active: 13.3 µM | active: 9.52 µM |  |  |  | 
CC1CCCNC1 (stereo not given) | inactive | inactive |  | inconclusive: 60.4 µM [cytotoxic, single point] | inconclusive: 60.4 µM [cytotoxic, single point] |  | inconclusive: 60.4 µM [single point] |  |  |  |  |  |  |  | inactive | inconclusive: -18.1% | inconclusive: 0.286% |  | 
CCCCCCCOC(=O)c1ccc(O)cc1 | inactive | inconclusive: 34.7 µM [inhibitor] and active: 43.6 µM |  | inconclusive: 97.8 µM [cytotoxic, single point] and inconclusive: 54.9 µM [cytotoxic, single point] | inconclusive: 34.7 µM [cytotoxic, partial curve, poor fit] and inconclusive: 54.9 µM [cytotoxic, single point] |  |  | inconclusive: 54.9 µM [inhibitor, single point] | inconclusive: 49 µM [rising, partial curve] | inactive |  |  | inconclusive: 24.6 µM [inhibitor, partial curve] and inconclusive: 54.9 µM [inhibitor, single point] | inconclusive: 43.7 µM [cytotoxic] and inconclusive: 54.9 µM [cytotoxic, single point] | inconclusive: 49 µM [cytotoxic, single point] and active: 38.9 µM |  |  | active: 34.7 µM | inconclusive: -25.3%
